# Some of the results follow.
# B1: NKp30 (Homo sapiens), O14931 (protein)
# chain: MAWMLLLILIMVHPGSCALWVSQPPEIRTLEGSSAFLPCSFNASQGRLAIGSVTWFRDEVVPGKEVRNGTPERFGRLAPLASSRFLHDHQAELHIRDVRGHDASIYVCRVEVLGLGVGTGNGTRLVVRKEHPQLGAGTHADPEAPEAEGAPSVFLFPPKPKDTLMISRTPEVTCVVVDVSHEDPEVKFNWYVDGVEVHNAKTPREEQYNSTYRVVSVLTVLHQDWLNGKEYKCKVSNKALPAPIEKTISKAKGQPREPQVYTLPPSRDELTKNQVSLTCLVKGFYPSDIAVEWESNGQPENNYKTTPPVLDSDGSFFLYSKLTVDKSRWQQGNVFSCSVMHEALHNHYTQKSLSLSPGK
# Columns and labels:
# Assay in all cases: glycan array binding signal (z-score within array); higher = stronger binding
# Conditions in all cases: glycan notation: IUPAC condensed, linker removed
# [1] = molecular target: GlcNAc(b1-3)Gal(b1-4)Glc
# Summary of the method: (§1)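 The Consortium for Functional Glycomics database supplied 3228 glycan arrays, of which those lacking an available protein sequence were dropped. The binding signal, a within-array Z-score, was averaged across arrays of the same protein sequence and across linkers. Negative scores can be read as non-binding.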
# [2] = molecular target: GlcNAc(b1-3)Gal(b1-4)GlcNAc
# Summary of the method: as §1
# [3] = molecular target: GlcNAc(b1-3)Gal(b1-4)GlcNAc(b1-3)Gal(b1-4)GlcNAc
# Summary of the method: as §1
# [4] = molecular target: GlcNAc(b1-3)GalNAc
# Summary of the method: as §1
# [5] = molecular target: GlcNAc(b1-3)Man
# Summary of the method: as §1
# [6] = molecular target: GlcNAc(b1-3)[GlcNAc(b1-4)][GlcNAc(b1-6)]GlcNAc
# Summary of the method: as §1
# [7] = molecular target: GlcNAc(b1-3)[GlcNAc(b1-6)]Gal(b1-4)GlcNAc
# Summary of the method: as §1
# [8] = molecular target: GlcNAc(b1-3)[GlcNAc(b1-6)]GalNAc
# Summary of the method: as §1
# [9] = molecular target: GlcNAc(b1-4)Gal(b1-4)GlcNAc
# Summary of the method: as §1
# [10] = molecular target: GlcNAc(b1-4)GlcNAc
# Summary of the method: as §1
# [11] = molecular target: GlcNAc(b1-4)GlcNAc(b1-4)GlcNAc
# Summary of the method: as §1
# [12] = molecular target: GlcNAc(b1-4)GlcNAc(b1-4)GlcNAc(b1-4)GlcNAc(b1-4)GlcNAc
# Summary of the method: as §1
# [13] = molecular target: GlcNAc(b1-4)GlcNAc(b1-4)GlcNAc(b1-4)GlcNAc(b1-4)GlcNAc(b1-4)GlcNAc
# Summary of the method: as §1
# [14] = molecular target: GlcNAc(b1-4)[GlcNAc(b1-6)]GalNAc
# Summary of the method: as §1
# [15] = molecular target: GlcNAc(b1-6)Gal(b1-4)GlcNAc
# Summary of the method: as §1
# [16] = molecular target: GlcNAc(b1-6)GalNAc
# Summary of the method: as §1
# [17] = molecular target: GlcNAc3Prop(b1-4)GlcNAc
# Summary of the method: as §1
# [18] = molecular target: Kdn(a2-3)Gal(b1-3)GlcNAc
# Summary of the method: as §1
# [19] = molecular target: Kdn(a2-3)Gal(b1-4)GlcNAc
# Summary of the method: as §1
# [20] = molecular target: Man(a1-2)Man(a1-2)Man(a1-3)Man
# Summary of the method: as §1
# [21] = molecular target: Man(a1-2)Man(a1-2)Man(a1-6)[Man(a1-3)]Man
# Summary of the method: as §1
# [22] = molecular target: Man(a1-2)Man(a1-3)Man
# Summary of the method: as §1
# [23] = molecular target: Man(a1-2)Man(a1-3)[Man(a1-2)Man(a1-6)]Man
# Summary of the method: as §1
# [24] = molecular target: Man(a1-2)Man(a1-3)[Man(a1-2)Man(a1-6)]Man(a1-6)[Man(a1-2)Man(a1-2)Man(a1-3)]Man
# Summary of the method: as §1
# [25] = molecular target: Man(a1-2)Man(a1-3)[Man(a1-2)Man(a1-6)]Man(a1-6)[Man(a1-2)Man(a1-2)Man(a1-3)]Man(b1-4)GlcNAc(b1-4)GlcNAc
# Summary of the method: as §1
# [26] = molecular target: Man(a1-2)Man(a1-3)[Man(a1-6)]Man(a1-6)[Man(a1-2)Man(a1-3)]Man(b1-4)GlcNAc(b1-4)GlcNAc
# Summary of the method: as §1
# [27] = molecular target: Man(a1-2)Man(a1-6)[Man(a1-3)]Man(a1-6)[Man(a1-2)Man(a1-2)Man(a1-3)]Man
# Summary of the method: as §1
# [28] = molecular target: Man(a1-2)Man(a1-6)[Man(a1-3)]Man(a1-6)[Man(a1-2)Man(a1-2)Man(a1-3)]Man(b1-4)GlcNAc(b1-4)GlcNAc
# Summary of the method: as §1
# [29] = molecular target: Man(a1-3)[Man(a1-6)]Man
# Summary of the method: as §1
# [30] = molecular target: Man(a1-3)[Man(a1-6)]Man(a1-6)[Man(a1-2)Man(a1-3)]Man(b1-4)GlcNAc(b1-4)GlcNAc
# Summary of the method: as §1
# [31] = molecular target: Man(a1-3)[Man(a1-6)]Man(a1-6)[Man(a1-3)]Man
# Summary of the method: as §1
# [32] = molecular target: Man(a1-3)[Man(a1-6)]Man(a1-6)[Man(a1-3)]Man(b1-4)GlcNAc(b1-4)GlcNAc
# Summary of the method: as §1
# [33] = molecular target: Man(a1-3)[Man(a1-6)]Man(b1-4)GlcNAc(b1-4)GlcNAc
# Summary of the method: as §1
# [34] = molecular target: Man(a1-6)Man
# Summary of the method: as §1
# [35] = molecular target: Man(b1-4)GlcNAc
# Summary of the method: as §1
# [36] = molecular target: Neu5Ac(a2-3)Gal
# Summary of the method: as §1
# [37] = molecular target: Neu5Ac(a2-3)Gal(b1-3)GalNAc
# Summary of the method: as §1
binder,measurement,setting,value
B1,glycan array binding signal (z-score),[1],-0.366
same,glycan array binding signal (z-score),[2],-0.475
same,glycan array binding signal (z-score),[3],-0.382
same,glycan array binding signal (z-score),[4],-0.234
same,glycan array binding signal (z-score),[5],-0.416
same,glycan array binding signal (z-score),[6],0.307
same,glycan array binding signal (z-score),[7],-0.303
same,glycan array binding signal (z-score),[8],0.236
same,glycan array binding signal (z-score),[9],0.402
same,glycan array binding signal (z-score),[10],0.115
same,glycan array binding signal (z-score),[11],0.282
same,glycan array binding signal (z-score),[12],-0.751
same,glycan array binding signal (z-score),[13],0.145
same,glycan array binding signal (z-score),[14],-0.794
same,glycan array binding signal (z-score),[15],-0.435
same,glycan array binding signal (z-score),[16],-0.344
same,glycan array binding signal (z-score),[17],-0.446
same,glycan array binding signal (z-score),[18],-0.276
same,glycan array binding signal (z-score),[19],-0.251
same,glycan array binding signal (z-score),[20],-0.025
same,glycan array binding signal (z-score),[21],-0.149
same,glycan array binding signal (z-score),[22],-0.11
same,glycan array binding signal (z-score),[23],-0.612
same,glycan array binding signal (z-score),[24],-0.573
same,glycan array binding signal (z-score),[25],-0.465
same,glycan array binding signal (z-score),[26],-0.318
same,glycan array binding signal (z-score),[27],-0.314
same,glycan array binding signal (z-score),[28],-0.41
same,glycan array binding signal (z-score),[29],-0.025
same,glycan array binding signal (z-score),[30],-0.427
same,glycan array binding signal (z-score),[31],-0.359
same,glycan array binding signal (z-score),[32],-0.192
same,glycan array binding signal (z-score),[33],-0.289
same,glycan array binding signal (z-score),[34],-0.577
same,glycan array binding signal (z-score),[35],-0.521
same,glycan array binding signal (z-score),[36],-0.18
same,glycan array binding signal (z-score),[37],-0.153

# From the supplement of paper PMC8728848
